Test results published in the supplement of paper PMC8728848.
Some of the results follow.

Experiments:
Experiment in all cases: glycan array binding signal (z-score within array); higher = stronger binding
Settings in all cases: glycan notation: IUPAC condensed, linker removed; mutation: R343V
[1] = target: Neu5Ac(a2-3)Gal6S(b1-4)[Fuc(a1-3)]GlcNAc
Summary of the method: (§1)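 The binding signal is a Z-score computed within each array. Data were drawn from 3228 arrays in the Consortium for Functional Glycomics database, restricted to those with a known protein sequence. Scores were averaged over arrays of the same protein sequence at different concentrations or buffers, and over linkers, and negative values can be taken as non-binding.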

Neu5Ac(a2-3)GalNAc = target: Neu5Ac(a2-3)GalNAc
Summary of the method: as §1

[2] = target: Neu5Ac(a2-3)GalNAc(b1-4)GlcNAc
Summary of the method: as §1

[3] = target: Neu5Ac(a2-3)[GalNAc(b1-4)]Gal(b1-4)Glc
Summary of the method: as §1

[4] = target: Neu5Ac(a2-3)[GalNAc(b1-4)]Gal(b1-4)GlcNAc
Summary of the method: as §1

[5] = target: Neu5Ac(a2-3)[Neu5Ac(a2-6)]GalNAc
Summary of the method: as §1

Neu5Ac(a2-6)Gal = target: Neu5Ac(a2-6)Gal
Summary of the method: as §1

Neu5Ac(a2-6)Gal(b1-4)Glc = target: Neu5Ac(a2-6)Gal(b1-4)Glc
Summary of the method: as §1

[6] = target: Neu5Ac(a2-6)Gal(b1-4)GlcNAc
Summary of the method: as §1

[7] = target: Neu5Ac(a2-6)Gal(b1-4)GlcNAc(b1-2)Man(a1-3)[Gal(b1-4)GlcNAc(b1-2)Man(a1-6)]Man(b1-4)GlcNAc(b1-4)GlcNAc
Summary of the method: as §1

[8] = target: Neu5Ac(a2-6)Gal(b1-4)GlcNAc(b1-2)Man(a1-3)[GlcNAc(b1-2)Man(a1-6)]Man(b1-4)GlcNAc(b1-4)GlcNAc
Summary of the method: as §1

[9] = target: Neu5Ac(a2-6)Gal(b1-4)GlcNAc(b1-2)Man(a1-3)[GlcNAc(b1-2)Man(b1-4)GlcNAc(b1-2)Man(a1-6)]Man(b1-4)GlcNAc(b1-4)GlcNAc
Summary of the method: as §1

[10] = target: Neu5Ac(a2-6)Gal(b1-4)GlcNAc(b1-2)Man(a1-3)[Neu5Ac(a2-6)Gal(b1-4)GlcNAc(b1-2)Man(a1-6)]Man(b1-4)GlcNAc(b1-4)GlcNAc
Summary of the method: as §1

[11] = target: Neu5Ac(a2-6)Gal(b1-4)GlcNAc(b1-2)Man(a1-6)[Gal(b1-4)GlcNAc(b1-2)Man(a1-3)]Man(b1-4)GlcNAc(b1-4)GlcNAc
Summary of the method: as §1

[12] = target: Neu5Ac(a2-6)Gal(b1-4)GlcNAc(b1-2)Man(a1-6)[GlcNAc(b1-2)Man(a1-3)]Man(b1-4)GlcNAc(b1-4)GlcNAc
Summary of the method: as §1

[13] = target: Neu5Ac(a2-6)Gal(b1-4)GlcNAc(b1-3)Gal(b1-4)GlcNAc
Summary of the method: as §1

[14] = target: Neu5Ac(a2-6)Gal(b1-4)GlcNAc(b1-3)Gal(b1-4)[Fuc(a1-3)]GlcNAc(b1-3)Gal(b1-4)[Fuc(a1-3)]GlcNAc
Summary of the method: as §1

[15] = target: Neu5Ac(a2-6)Gal(b1-4)GlcNAc6S
Summary of the method: as §1

Neu5Ac(a2-6)GalNAc = target: Neu5Ac(a2-6)GalNAc
Summary of the method: as §1

[16] = target: Neu5Ac(a2-6)GalNAc(b1-4)GlcNAc
Summary of the method: as §1

Neu5Ac(a2-8)Neu5Ac = target: Neu5Ac(a2-8)Neu5Ac
Summary of the method: as §1

[17] = target: Neu5Ac(a2-8)Neu5Ac(a2-3)Gal(b1-4)Glc
Summary of the method: as §1

[18] = target: Neu5Ac(a2-8)Neu5Ac(a2-3)[GalNAc(b1-4)]Gal(b1-4)Glc
Summary of the method: as §1

[19] = target: Neu5Ac(a2-8)Neu5Ac(a2-8)Neu5Ac
Summary of the method: as §1

[20] = target: Neu5Ac(a2-8)Neu5Ac(a2-8)Neu5Ac(a2-3)Gal(b1-4)Glc
Summary of the method: as §1

[21] = target: Neu5Ac(a2-8)Neu5Ac(a2-8)Neu5Ac(a2-3)[GalNAc(b1-4)]Gal(b1-4)Glc
Summary of the method: as §1

[22] = target: Neu5Ac(a2-8)Neu5Ac(a2-8)Neu5Ac(a2-8)Neu5Ac(a2-3)[GalNAc(b1-4)]Gal(b1-4)Glc
Summary of the method: as §1

[23] = target: Neu5Ac(b2-6)Gal(b1-4)GlcNAc
Summary of the method: as §1

Neu5Ac(b2-6)GalNAc = target: Neu5Ac(b2-6)GalNAc
Summary of the method: as §1

[24] = target: Neu5Ac9Ac(a2-6)Gal(b1-4)GlcNAc
Summary of the method: as §1

[25] = target: Neu5Gc(a2-3)Gal(b1-3)GlcNAc
Summary of the method: as §1

[26] = target: Neu5Gc(a2-3)Gal(b1-3)[Fuc(a1-4)]GlcNAc
Summary of the method: as §1

Neu5Gc(a2-3)Gal(b1-4)Glc = target: Neu5Gc(a2-3)Gal(b1-4)Glc
Summary of the method: as §1

[27] = target: Neu5Gc(a2-3)Gal(b1-4)GlcNAc
Summary of the method: as §1

[28] = target: Neu5Gc(a2-3)Gal(b1-4)[Fuc(a1-3)]GlcNAc
Summary of the method: as §1

[29] = target: Neu5Gc(a2-6)Gal(b1-4)GlcNAc
Summary of the method: as §1

Neu5Gc(a2-6)GalNAc = target: Neu5Gc(a2-6)GalNAc
Summary of the method: as §1

[30] = target: Neu5Gc(b2-6)Gal(b1-4)GlcNAc
Summary of the method: as §1

B1: Surfactant Protein D (Human); Neck + Carbohydrate Recognition Domain (NCRD) (Homo sapiens) (protein)
chain: MLLFLLSALVLLTQPLGYLEAEMKTYSHRTMPSACTLVMCSSVESGLPGRDRDGREGPRGEKGDPGLPGAAGQAGMPGQAGPVGPKGDNGSVGEPGPKGDTGPSGPPGPPGVPGPAGREGALGKQGNIGPQGKPGPKGEAGPKGEVGAPGMQGSAGARGLAGPKGERGVPGERGVPGNTGAAGSAGAMGPQGSPGARGPPGLKGDKGIPGDKGAKGESGLPDVASLRQQVEALQGQVQHLQAAFSQYKKVELFPNGQSVGEKIFKTAQFVKPFTEAQLLCTQAGGQLASPRSAAENAALQQLVVAKNEAAFLSMTDSKTEGKFTYPTGESLVYSNWAPGEPNDDGGSEDCVEIFTNGKWNDVACGEKRLVVCEF
For B1, the “glycan array binding signal (z-score)” value [1] was -0.267, the “glycan array binding signal (z-score)” value (Neu5Ac(a2-3)GalNAc) was -0.398 and the “glycan array binding signal (z-score)” value [2] was -0.448. The “glycan array binding signal (z-score)” value [3] was -0.494, the “glycan array binding signal (z-score)” value [4] was -0.442 and the “glycan array binding signal (z-score)” value [5] was -0.444. The “glycan array binding signal (z-score)” value (Neu5Ac(a2-6)Gal) was -0.471, the “glycan array binding signal (z-score)” value (Neu5Ac(a2-6)Gal(b1-4)Glc) was -0.476 and the “glycan array binding signal (z-score)” value [6] was -0.412. The “glycan array binding signal (z-score)” value [7] was -0.384, the “glycan array binding signal (z-score)” value [8] was 0.257 and the “glycan array binding signal (z-score)” value [9] was -0.432. For the same binder, the “glycan array binding signal (z-score)” value [10] was -0.432, the “glycan array binding signal (z-score)” value [11] was -0.459 and the “glycan array binding signal (z-score)” value [12] was 2.21. For the same binder, the “glycan array binding signal (z-score)” value [13] was -0.44, the “glycan array binding signal (z-score)” value [14] was -0.107 and the “glycan array binding signal (z-score)” value [15] was -0.319. The “glycan array binding signal (z-score)” value (Neu5Ac(a2-6)GalNAc) was -0.425, the “glycan array binding signal (z-score)” value [16] was -0.343 and the “glycan array binding signal (z-score)” value (Neu5Ac(a2-8)Neu5Ac) was -0.416. For the same binder, the “glycan array binding signal (z-score)” value [17] was -0.47, the “glycan array binding signal (z-score)” value [18] was -0.378 and the “glycan array binding signal (z-score)” value [19] was -0.525. The “glycan array binding signal (z-score)” value [20] was -0.49, the “glycan array binding signal (z-score)” value [21] was -0.425 and the “glycan array binding signal (z-score)” value [22] was -0.467. The “glycan array binding signal (z-score)” value [23] was -0.5, the “glycan array binding signal (z-score)” value (Neu5Ac(b2-6)GalNAc) was -0.487 and the “glycan array binding signal (z-score)” value [24] was -0.317. The “glycan array binding signal (z-score)” value [25] was -0.452, the “glycan array binding signal (z-score)” value [26] was -0.416 and the “glycan array binding signal (z-score)” value (Neu5Gc(a2-3)Gal(b1-4)Glc) was -0.427. The “glycan array binding signal (z-score)” value [27] was -0.502, the “glycan array binding signal (z-score)” value [28] was -0.397 and the “glycan array binding signal (z-score)” value [29] was -0.589. The “glycan array binding signal (z-score)” value (Neu5Gc(a2-6)GalNAc) was -0.555 and the “glycan array binding signal (z-score)” value [30] was -0.54.
